Experimental data published in PubChem BioAssay AID624417 (National Center for Advancing Translational Sciences (NCATS), 2012).
Several values for one entry are separate records, joined by “and”; a condition that tells them apart may be missing. Identical values can stand only once. The whole screen tested about 410,000 compounds, of which about 6,400 (1.6%) were called active. The inconclusive results got no clear call from the source; some entries with a clear call stand among them for comparison. Calls follow the shape of the dose curve; as a rule, active = well fitted inhibition curve with a large enough effect; inconclusive = small, poorly fitted or top-dose-only effect; inactive = no such curve, though single readings can be large or run the other way. Potencies of inconclusive entries are doubtful fits and often do not repeat.

What follows are molecules tested against Glucagon-like peptide 1 receptor (Homo sapiens) (UniProt P43220) (assay: qHTS of GLP-1 Receptor Inverse Agonists (Inhibition Mode)). Details: HEK293 GLP-1R CRE-luciferase, luminescence, 24 h, GLP-1R form is constitutively active; activity change, negative = inhibition: at 38.3 µM (top of the series) unless noted.
Procedure, shortened: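 Inverse agonism was detected as reduced cAMP-driven luciferase luminescence after 24 h compound treatment. The cells were HEK293 clones expressing constitutively active human GLP-1R with the reporter. Reporter-only and GPR119 cell lines served as counterscreen controls.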
% is scaled to controls: 0 for no effect and ±100 for the full control effect; potency is read from the fitted curve at half-maximal effect; tags tell the direction and shape of the fitted curve.
Also: nearly all actives have a fitted effect of over 55% in size.

Sequence of UniProt P43220 (P43220 whole entry, looked up): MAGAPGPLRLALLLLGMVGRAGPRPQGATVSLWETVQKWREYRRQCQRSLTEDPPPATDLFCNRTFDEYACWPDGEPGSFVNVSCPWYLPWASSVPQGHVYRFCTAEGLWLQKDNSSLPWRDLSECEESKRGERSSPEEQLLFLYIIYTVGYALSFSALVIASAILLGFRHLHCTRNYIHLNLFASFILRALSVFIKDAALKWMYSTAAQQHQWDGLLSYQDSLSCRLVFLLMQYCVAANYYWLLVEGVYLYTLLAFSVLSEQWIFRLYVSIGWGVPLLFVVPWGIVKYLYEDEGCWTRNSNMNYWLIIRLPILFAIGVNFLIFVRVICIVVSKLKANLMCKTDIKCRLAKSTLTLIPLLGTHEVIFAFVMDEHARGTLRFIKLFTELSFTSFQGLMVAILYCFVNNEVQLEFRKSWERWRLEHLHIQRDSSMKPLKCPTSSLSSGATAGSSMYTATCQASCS

Row | SMILES | Potency | activity change, negative = inhibition
1 | Cc1cc(C)nc(NN=CC2=C(N3CCOCC3)/C(=C/c3ccc(Cl)cc3)CC2)n1 | inconclusive: 14.1 µM [inhibitor, partial curve, poor fit] | 
2 | CO/N=C/c1ccc(N2CCN(C(=O)c3ccc(F)cc3)CC2)c([N+](=O)[O-])c1 | inconclusive: 15.8 µM [inhibitor, single point] | 
3 | Cn1c(NCc2ccc(Cl)cc2)nc2ccccc21 | inconclusive: 8.91 µM [inhibitor, partial curve, poor fit] | 
4 | C/C(=N\NC(=O)c1cc(C)oc1C)c1ccc2c(c1)OCO2 | inactive | 
5 | Fc1cc(F)nc(NCc2ccccc2)n1 | inactive | 
6 | CCOC(=O)c1c(Cc2ccc(Cl)cc2)c[nH]c1C | inconclusive: 22.4 µM [inhibitor, partial curve, poor fit] | 
7 | COc1ccc(NC(=O)c2ccc3c(=O)n4nc(Nc5cccc(Cl)c5C)sc4nc3c2)cc1 | inactive | 
8 | COc1ccc2nc(C)cc(SCC(=O)OC(C)C)c2c1 | inconclusive: 31.6 µM [inhibitor, single point] | 
9 | CC(C)(C)C(=O)Cn1c(=N)n(Cc2ccccc2)c2ccccc21 | inconclusive: 1.26 µM [inhibitor, full curve, poor fit] | 
10 | CC1(C(=O)NCCc2c[nH]c3ccccc23)CCN1Cc1csc2ccccc12 (stereo unspecified) | inconclusive: 28.2 µM [inhibitor, single point] | 
11 | N#Cc1ccccc1NC(=O)C1SC(=Nc2ccccc2)C(C(=O)Nc2ccc(Cl)cc2)=C1N (stereo unspecified) | inconclusive: 25.1 µM [inhibitor, single point] | 
12 | C=Cc1ccc(Cn2c(C(=O)O)c(CNCc3ccccc3)c3ccc(C)cc32)cc1 | inconclusive: 12.6 µM [inhibitor, partial curve, poor fit] | 
13 | COc1cccc(NC(=O)C2(C)CCN2C(=O)Cc2ccc(-c3ccccc3)cc2)c1 (stereo unspecified) | inconclusive: 22.4 µM [inhibitor, partial curve, poor fit] | 
14 | Cc1c(C)n(C)c2ccc(C(=O)NCCCN3CCN(c4ccc(F)cc4)CC3)cc12 | inconclusive: 12.6 µM [inhibitor, partial curve, poor fit] | 
15 | COc1cc(NC(=O)c2cnc(N)s2)cc(C(=O)Nc2cccc(C(F)(F)F)c2)c1 | active: 12.6 µM | 
16 | O=C(C1CCCN(S(=O)(=O)c2ccc(Br)s2)C1)N1CCN(c2ccccc2)CC1 (stereo unspecified) | inconclusive: 28.2 µM [inhibitor, single point] and inconclusive: 15.8 µM [inhibitor, partial curve, poor fit] | 
17 | CNC(=O)C1CCC(Cn2c(=O)c3sccc3n(CC(=O)NCc3ccc(F)cc3)c2=O)CC1 (stereo unspecified) | inactive | 
18 | COc1ccc(Cn2nnnc2C(C(C)C)N2CCN(c3ccccc3OC)CC2)cc1 (stereo unspecified) | inconclusive: 10 µM [inhibitor, partial curve, poor fit] | 
19 | COc1ccccc1NC(=O)c1cc(S(=O)(=O)N2CCCCCC2)ccc1F | inconclusive: 12.6 µM [inhibitor, partial curve, poor fit] | 
20 | CC12CCC(=O)N1C(C(=O)Nc1nc(-c3cc(F)ccc3F)cs1)CS2 (stereo unspecified) | inconclusive: 4.47 µM [inhibitor, full curve] | 
21 | Cc1ccc2nc(SC(C)C(=O)NC3CCCc4ccccc43)[nH]c2c1 (stereo unspecified) | inconclusive: 10 µM [inhibitor, partial curve, poor fit] | 

Row | SMILES | Potency | activity change, negative = inhibition
22 | CCn1nccc1C(=O)Nc1ccc(Cl)cn1 | inactive | 
23 | Cc1ccc(C(C(=O)NC2CCCCC2)N(C(=O)Cc2c[nH]c3ccccc23)c2ccccc2)o1 (stereo unspecified) | inconclusive: 2.51 µM [inhibitor, partial curve, poor fit] | 
24 | O=C1CCC(O)CCN1CCSc1ccccc1 (stereo unspecified) | inactive | 
25 | COc1ccc(CN2C3CCCC2CC(NC(=O)Nc2cccc(C)c2)C3)cc1 (stereo unspecified) | inconclusive: 10 µM [inhibitor, partial curve, poor fit] | 
26 | C[C@]12C(=O)N(c3ccc(C(F)(F)F)cc3)C(=O)N1[C@H]1c3ccccc3OC[C@@H]1[C@H]2c1ccccc1 | inconclusive: 1.58 µM [inhibitor, full curve] | 
27 | CCCCOC(=O)C1=C(C)Nc2nnnn2C1c1ccccc1Cl (stereo unspecified) | inconclusive: 20 µM [inhibitor, single point] | 
28 | COC(=O)c1c(NC(=O)CN2CCCc3ccccc32)sc(C)c1C | inactive | 
29 | CC(=O)Nc1ccc(NC(=O)c2oc3ccc4c(c3c2C)C(=O)CC(C)(C)O4)cc1 | inactive | 
30 | Cc1ccc(C2=NN3C(C(=O)c4ccccc4)Oc4ccccc4C3C2)cc1 (stereo unspecified) | inconclusive: 28.2 µM [inhibitor, single point] | 
31 | COc1ccc(C(=O)C2CCCN(Cc3cn(C)nc3-c3ccccc3)C2)cc1F (stereo unspecified) | inconclusive: 28.2 µM [inhibitor, single point] | 
32 | CCOC(=O)Cn1c(C)c(Br)c(COC)c(C#N)c1=O | inconclusive: 1.58 µM [inhibitor, full curve, poor fit] | 
33 | O=C(Nc1ccc(OC(F)F)c(Cl)c1)Nc1ccc2c(c1)OCO2 | inconclusive: 5.62 µM [inhibitor, partial curve, poor fit] | 
34 | CCCCN1C(=O)/C(=C/C=C2/CC(C)(C)CN2C)SC1=S | inconclusive: 1.78 µM [inhibitor, full curve, poor fit] | 
35 | COCCNC(=O)Cc1c(C)c2c(cc(C)c3c(C(C)(C)C)coc32)oc1=O |  | inconclusive: -39.1% [inhibitor]
36 | COc1ccc(/C=N/NC(=O)c2ccccc2OCc2ccccc2)c(OC)c1 | inconclusive: 15.8 µM [inhibitor, partial curve, poor fit] | 
37 | Cc1ccc(S(=O)(=O)N2[C@@H](c3ccc(C(C)(C)C)cc3)C(C(=O)O)=CC[C@H]2c2cccc(Cl)c2)cc1 | inconclusive: 17.8 µM [inhibitor, partial curve, poor fit] | 
38 | Cc1ccc(Nc2cc(C)nc3ccc(C)cc23)cc1 | inconclusive: 10 µM [inhibitor, partial curve, poor fit] | 
39 | CC(C(=O)NCC1CCCCC1)N1CCN(S(=O)(=O)c2ccccc2F)CC1 (stereo unspecified) | inconclusive: 11.2 µM [inhibitor, single point] | 
40 | CSc1ccc2c(c1)C(N1CCN(C)CC1)Cc1ccccc1S2 (stereo unspecified) | inconclusive: 11.2 µM [inhibitor, partial curve, poor fit] and inconclusive: 28.2 µM [inhibitor, single point] | 
41 | COc1ccc(CCNC(=O)C2CCCN(c3nc4c(C)cc(C)cc4s3)C2)cc1OC (stereo unspecified) | inactive | 
42 | Nc1ccc(Cl)cc1C(=O)c1ccc[nH]1 | inconclusive: 28.2 µM [inhibitor, single point] | 

Row | SMILES | Potency | activity change, negative = inhibition
43 | c1ccc(-c2cc3nc(NCc4cccs4)nc(NCc4ccc5occc5c4)c3s2)cc1 | inconclusive: 28.2 µM [inhibitor, single point] | 
44 | CCOc1ccc(C(O)c2nccn2Cc2ccccc2)cc1 (stereo unspecified) | inconclusive: 11.2 µM [inhibitor, single point] | 
45 | C=CCOC(=O)C1=C[C@H](c2ccc(C(F)(F)F)cc2)C[C@H](OCCCCO)O1 | inconclusive: 7.94 µM [inhibitor, partial curve, poor fit] | 
46 | O=C(CN1C(=O)COc2ccc(S(=O)(=O)N3CCOCC3)cc21)N1CCN(c2ccccc2)CC1 | inactive | 
47 | O=C(N/N=C(\CC(=O)c1cccs1)C(F)(F)F)c1cccnc1 | active: 2.24 µM | 
48 | CSCC(=O)N1CCC(n2nccc2NC(=O)CCc2ccccc2)CC1 | inactive | 
49 | Cc1c(C(=O)OC2CCCC2)[nH]c2c1C(=O)CC(c1ccco1)C2 (stereo unspecified) | inconclusive: 1 µM [inhibitor, full curve, poor fit] | 
50 | CCOC(=O)c1ccccc1NC(=O)CSc1ccc(-c2ccccn2)nn1 | inactive | 
51 | Cc1ccc(C(=O)NCc2ccc3c(c2)OCO3)cc1S(=O)(=O)N1CCCCC1 | inconclusive: 0.891 µM [inhibitor, full curve, poor fit] | 
52 | O=C(NC(c1ccc(Cl)cc1)c1c(O)ccc2ccccc12)c1ccccc1 (stereo unspecified) | inactive | 
53 | Cc1ccc(S(=O)(=O)N2CCC(C(=O)Nc3ccccc3N3CCCC3)CC2)c(C)c1 | inconclusive: 3.55 µM [inhibitor, partial curve, poor fit] | 
54 | CN1CC(c2ccccc2)C2(COc3ccccc3C2=O)C12C(=O)Nc1ccccc12 (stereo unspecified) | inconclusive: 12.6 µM [inhibitor, partial curve, poor fit] | 
55 | Cc1cccc(C)c1NC(=O)CNC(=O)C(C)N1CCN(c2cccc(Cl)c2)CC1 (stereo unspecified) | inconclusive: 10 µM [inhibitor, partial curve, poor fit] | 
56 | O=C(COC(=O)c1ccccc1O)NCCc1c[nH]c2ccccc12 | inconclusive: 11.2 µM [inhibitor, single point] | 
57 | O=C(Cc1csc(NC(=O)Nc2cccc(Cl)c2)n1)NCc1cccnc1 | inconclusive: 28.2 µM [inhibitor, single point] | 
58 | CC(C)(C)Cc1c(-c2ccc(C#N)cc2)nc2c(Cl)cc(C(F)(F)F)cn12 | inconclusive: 5.62 µM [inhibitor, partial curve, poor fit] | 
59 | CCCCNC(=O)Cn1c(=O)oc2cc(S(=O)(=O)N3CC(C)CC(C)C3)ccc21 (stereo unspecified) | inconclusive: 7.08 µM [inhibitor, partial curve, poor fit] | 
60 | O=S(=O)(c1cc(Cl)ccc1Cl)N1CCc2ccccc21 | inconclusive: 12.6 µM [inhibitor, single point] | 
61 | CCN1C(=O)C(CC(=O)Nc2ccc(F)cc2)N(Cc2ccco2)C1=S (stereo unspecified) |  | inactive: 5.68% [at 7.66 µM]
